# Results taken from PubChem BioAssay AID894 (National Center for Advancing Translational Sciences (NCATS), 2007).
# Hit rate of the full screen: of about 150,000 compounds, about 6,500 (4.3%) were called active. Inconclusive means that the source gave no clear call. Such entries were picked first, then a sample of the others. Calls come from the whole dose curve; as a rule, active = well fitted inhibition curve with a large enough effect (not every such curve was filed as active); inconclusive = small, poorly fitted or top-dose-only effect, or another doubt; inactive = no such curve, though single readings can be large or run the other way. Potencies of inconclusive entries are left out as doubtful fits.
# Target: 15-hydroxyprostaglandin dehydrogenase [NAD(+)] (Homo sapiens) (UniProt P15428)
# UniProt P15428, sequence (P15428 whole entry, looked up): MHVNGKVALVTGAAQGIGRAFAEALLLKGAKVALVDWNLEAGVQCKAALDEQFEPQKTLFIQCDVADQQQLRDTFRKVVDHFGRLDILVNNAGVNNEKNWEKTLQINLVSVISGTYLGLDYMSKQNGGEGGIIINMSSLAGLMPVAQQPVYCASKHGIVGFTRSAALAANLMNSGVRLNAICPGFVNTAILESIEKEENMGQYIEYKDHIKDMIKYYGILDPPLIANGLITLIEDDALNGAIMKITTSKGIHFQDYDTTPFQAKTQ
# Assay: qHTS Assay for Inhibitors of HPGD (15-Hydroxyprostaglandin Dehydrogenase)
# Conditions: purified HPGD, NADH fluorescence kinetic, PGE2 substrate; activity change, negative = inhibition: hits give low values
# Method in brief: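 NADH formation kinetics: reaction with 30 uM PGE2 and 1 mM NAD+ (final), 20 nM enzyme, Tris-HCl pH 8 with Tween 20, after 15 min compound preincubation at room temperature. Fluorescence change, last versus first of five reads.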
# % is set by controls: 0 for no effect and ±100 for the full control effect; potency is the fitted concentration of half-maximal effect; tags give direction and shape of the fitted curve.
SMILES,Potency,"activity change, negative = inhibition"
COCc1cc(C)nc(N)c1C#N,"inconclusive [inhibitor, partial curve]",
O=C(COc1ncnc2c(Cl)cc(Cl)cc12)NC1CCCCCC1,"inconclusive [inhibitor, partial curve]",
CCN(CC)CCn1c2ccccc2c2nc(C)sc21,,inactive: -7.16%
CCN(CC)S(=O)(=O)c1cc(-c2nn(C)c(=O)c3ccccc23)ccc1C,"inconclusive [inhibitor, partial curve, poor fit]",
Cc1ccc(S(=O)(=O)N2c3ccccc3OCC2C(C)(C)C)cc1 (centres undefined),,inactive: -10.2%
COc1cccc(C(=O)NCc2cccnc2)c1,,inactive: -11.3%
CC(C)(c1cc(Br)c(OCC(Br)CBr)c(Br)c1)c1cc(Br)c(OCC(Br)CBr)c(Br)c1 (centres undefined),,inactive: -5.25%
CC(=O)OC1CCC2(C)C3CCC4(C)C(CC5CCCCC54C(C)=O)C3CC(=O)[C@@]2(O)C1 (some centres undefined),,inactive: -9.07%
CN(C)S(=O)(=O)Nc1ccc(Oc2ccccc2)cc1,active: 12.6 µM,
CCOC(=O)c1cccc(NC(=O)CCS(=O)(=O)c2cccc3nsnc23)c1,"inconclusive [inhibitor, single point]",
C[N+](C)([O-])Cc1cc(-c2ccccc2)ccc1O,,inactive: -10.9%
Cc1cc(-c2n[nH]c(=S)n2-c2ccccc2C)cs1,"inconclusive [inhibitor, partial curve]",
O=c1oc(-c2ccco2)nc2ccccc12,"inconclusive [inhibitor, single point]",
C#CC[N+]1(CC#Cc2ccc(C)cc2)CCCCC1,,inactive: -3.91%
COc1cc(C=O)ccc1OCCOc1ccccc1[N+](=O)[O-],"inconclusive [inhibitor, partial curve]",
Cc1ccc(CNc2ncccc2-c2nc3cc(Cl)ccc3o2)cc1,"inconclusive [inhibitor, partial curve]",
C=CCOc1c(CNc2cccc(C(=O)O)c2)cccc1OC,"inconclusive [inhibitor, partial curve]",
CCC(CC)=N/N=C/c1c(O)n(CC)c2cc(C3=NNC(=O)CC3)ccc12,"inconclusive [inhibitor, partial curve]",
COc1ccccc1C(=O)Nc1c2c(nn1-c1cccc(C)c1C)CS(=O)(=O)C2,"inconclusive [inhibitor, single point]",
Cc1cccc2[nH]c(-c3ccc(NC(=O)c4ccco4)cc3)nc12,"inconclusive [inhibitor, partial curve]",
CCOC(=O)c1ccc(N2CCN(c3ccc(F)cc3)CC2)c(NC(=O)Nc2cccc(OC)c2)c1,"inconclusive [inhibitor, partial curve]",
CCOc1ccc(Oc2c(/C=N/NC(C)=O)c(C)nn2-c2ccccc2)cc1,,inactive: -8.43%
Cc1ccc(-c2csc3ncnc(Oc4ccc5c(C)cc(=O)oc5c4)c23)cc1,"inconclusive [inhibitor, partial curve]",

SMILES,Potency,"activity change, negative = inhibition"
N#Cc1c(N)nc2c(c1-c1ccncc1)CCCC2,"inconclusive [inhibitor, partial curve]",
Cc1nc(NC(=O)c2oc3ccccc3c2C)sc1C(=O)N(C)C,active: 31.6 µM,
CCCN(CC1CC1)C(=O)COC(=O)c1[nH]c(C)c(C(=O)OCC)c1C,,inactive: -8.88%
COC(=O)CN(c1ccccn1)S(=O)(=O)c1ccccc1,"inconclusive [inhibitor, partial curve]",
COC(=O)c1c(C)cc(C)n2c1nc1ccccc12,"inconclusive [inhibitor, partial curve]",
CC(C)C(=O)Nc1c2c(nc3ccccc13)N(C)CC2,"inconclusive [inhibitor, partial curve]",
CCN(CC)C(=O)C1CCN(Cc2ccc(Br)cc2)CC1,,inactive: -1.23%
CCOC(=O)c1sc(-c2ccc(C)cc2)c(C#N)c1C,"inconclusive [inhibitor, partial curve]",
O=C(/C=C/c1ccccc1Cl)NCCc1ccccc1,active: 15.8 µM,
CCOC(=O)c1[nH]c2ccccc2c1NC(=O)C(C)(C)C,"inconclusive [inhibitor, partial curve]",
N#Cc1nc(COc2ccc(Cl)cc2)oc1N1CCN(Cc2ccccc2)CC1,,inactive: -16.6%
CSC1=NCCN1C(=O)c1ccc(S(=O)(=O)N(C)C)cc1,,inactive: -8.91%
COc1cc2c(C#N)c(N3CCN(c4ccccc4OC)CC3)nc(N)c2c(N)n1,"inconclusive [inhibitor, partial curve]",
COc1ccc(S(=O)(=O)/N=C2/NC(=O)/C(=C\c3cc(OC)c(OC)cc3[N+](=O)[O-])S2)cc1,active: 5.01 µM,
O=c1cc(-c2ccccc2)oc2c(O)c(O)ccc12,active: 3.16 µM,
CCCn1nnnc1SCC(=O)N1CCN(C(=O)c2ccco2)CC1,,inactive: -11.2%
O=C1C(CCCNC(=S)NCc2ccccc2)NC(=S)N1Cc1ccccc1 (centres undefined),"inconclusive [inhibitor, single point]",
Cc1cc(C)n(C(=O)c2ccc(NC(=O)C3COc4ccccc4O3)cc2)n1 (centres undefined),"inconclusive [inhibitor, single point]",
COc1ccc(-c2ccnc3nc(-n4cccc4)nn23)cc1,"inconclusive [inhibitor, partial curve]",
Cc1ccc(-c2cc(C(=O)N/N=C/C=C/c3ccccc3)n[nH]2)s1,active: 31.6 µM,
CCCOc1ccc(-c2nnc(-c3ccco3)o2)cc1,"inconclusive [inhibitor, partial curve]",
COC(=O)C1(CC(C)C)C=C2C(=C(c3ccccc3)C(=O)C2C)CN1 (centres undefined),"inconclusive [inhibitor, single point]",
CNC(=O)c1cc2c(=O)n3cccc(C)c3nc2n(C(C)C)c1=N,"inconclusive [inhibitor, partial curve]",

SMILES,Potency,"activity change, negative = inhibition"
C=CCNC(=O)NC(=O)COC(=O)/C(C#N)=C/c1cc(C)n(CCC(C)C)c1C,"inconclusive [inhibitor, partial curve]",
CN(C)c1ccc(-c2nn3c(-c4ccc(Cl)cc4Cl)nnc3s2)cc1,"inconclusive [inhibitor, partial curve, poor fit]",
Cc1cc2c(c(=O)n1C)C(Cc1ccccc1)C(C#N)=C(N)O2 (centres undefined),"inconclusive [inhibitor, partial curve]",
Cc1noc(C)c1-c1ccc2ncnc(NC3CC3)c2c1,active: 14.1 µM,
COc1cc(-c2nnc(COC(=O)c3cc(C)nc4ccc(C)cc34)o2)cc(OC)c1OC,"inconclusive [inhibitor, partial curve]",
COc1cc(/C=C/C(=O)OCC(=O)Nc2cccc(Oc3ccccc3)c2)ccc1O,"inconclusive [inhibitor, partial curve]",
Cc1nn(-c2ccccc2)c(Cl)c1C1C(C#N)=C(N)Oc2c1c(C)nn2-c1ccccc1 (centres undefined),active: 35.5 µM,
Cc1ccc(OCC(=O)Nc2ccc(Cl)cc2)c(-n2nc3ccccc3n2)c1,"inconclusive [inhibitor, partial curve]",
COc1cccc(-c2nnc(Nc3nc4c(F)cccc4s3)o2)c1,"inconclusive [inhibitor, partial curve]",
COc1cccc(-c2nnc(NC(=O)c3ccc(S(=O)(=O)N(CC(C)C)CC(C)C)cc3)o2)c1,"inconclusive [inhibitor, partial curve]",
CCc1cc2c(=O)c(-c3nc4ccccc4n3C)c(C)oc2c(CN2CCN(CCO)CC2)c1O,"inconclusive [inhibitor, partial curve]",
COC(=O)C1=C2SC(C)C(=O)N2C(N)=C(C#N)C1c1ccc(OC)c(OC)c1 (centres undefined),"inconclusive [inhibitor, partial curve]",
N#CCc1c(C#N)c(N)nc(N2CCN(S(=O)(=O)c3ccccc3)CC2)c1C#N,"inconclusive [inhibitor, partial curve]",
O=C(/C=C/c1ccccc1)NC1CC2CCC1C2 (centres undefined),"inconclusive [inhibitor, partial curve]",
COc1ccc(C/C(N)=N/n2cnnc2)cc1Cl,,inactive: -13.3%
Cc1ccc(N/N=C/c2ccc3c(c2)OCCO3)cc1Cl,"inconclusive [inhibitor, partial curve]",
Cc1cc(C)c2[nH]c(=O)c(C(c3nnnn3CC3CCCO3)N3CCCC(C)C3)cc2c1 (centres undefined),"inconclusive [inhibitor, partial curve]",
O=C(Nc1ccccc1-c1nc2ccccc2s1)C1=COCCO1,"inconclusive [inhibitor, partial curve]",
Cc1ccc(-n2[nH]c(C)c(C=Nc3ccc(S(=O)(=O)Nc4nccs4)cc3)c2=O)cc1C,"inconclusive [inhibitor, partial curve]",
COCc1nnc(NC(=O)CSc2ccc(C)cc2)s1,active: 28.2 µM,
CCOC(=O)C1CCCN(C(=O)c2cnn3c(C(F)(F)F)cc(-c4ccccc4)nc23)C1 (centres undefined),active: 25.1 µM,
Cc1cc(-c2ccccc2)n2nc(C)c(C#N)c2n1,"inconclusive [inhibitor, partial curve]",
c1ccc(-c2csc3ncnc(N4CCc5ccccc5C4)c23)cc1,"inconclusive [inhibitor, partial curve, poor fit]",
